The values that follow come from article PMC12136788.

Changes are numbered by the printed parent chain. This is one part of the list.

T1: UNK ZnF1-3 (human, UniProt Q9C0B0 31-174)
T1 sequence: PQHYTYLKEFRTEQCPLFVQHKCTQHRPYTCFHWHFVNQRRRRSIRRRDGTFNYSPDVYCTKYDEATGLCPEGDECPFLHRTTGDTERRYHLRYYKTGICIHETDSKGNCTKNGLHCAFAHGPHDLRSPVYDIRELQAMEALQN

B1: chr6:41757443:41757444:+_ENSG00000214736_ENST00000398881|hu_mus|hu_hu_hu_mus_False|18_58 (ssRNA)
RNA: GGGAGUUCUACAGUCCGACGAUCGAACCGUGCAGAGGCAACAUCUCAGCCGACACUGGGGGAUGGGGGGGCAGUGGGAAACUAGGCAGGCAAGGAGAGGGAGUCAACUUCAGCUGCUCAAACUUCAGGAUCUUGUGGUCACAGCAACAGAGGAUUGAGCAUCA
B2: chr17:49043493:49043494:-_ENSG00000008294_ENST00000510283|hu_mus|FALSE|FALSE (ssRNA)
RNA: GGGAGUUCUACAGUCCGACGAUCUCGAUUUGUUCAUGAUAUACUGAAAUUUCCUAUUAACACUGGUGCAGUAAACUAGCUCGCUCCUCUGUAUUGUUACCAUAGAACAGAUUGUGUAAUAUAAAGGUAACAGGGGAAAAUGCUCAACAGAGGAUUGAGCAUCA
B3: chr1:10024197:10024198:-_ENSMUSG00000025917_ENSMUST00000027050|mus_hu|motif|central (ssRNA)
RNA: GGGAGUUCUACAGUCCGACGAUCGAGCAUCUGAGUACUAACAUCAAUCCCAGAAAGCCAGCAGCCAUAGCCAGGGUGGCGGUGAUACCACCCGAUUGCAUUUUCAAGGCGGCCAACCUGUUUUGCAUUUUCUAUGUAUGCAGCCAACAGAGGAUUGAGCAUCA
B4: chr11:86510823:86510824:-_ENSMUSG00000047126_ENSMUST00000103186|mus_hu|motif|central (ssRNA)
RNA: GGGAGUUCUACAGUCCGACGAUCAAUGGGUUGUGUCUCUGUAGCUUGUUCUUCUUCUUUUCUCAGUGAUUCUGAAGCAUCGGAUUUAUCCACCUUUGUCAAGUACUCCUUCAUGACCUGGAUGAAAUAGGGCAUGGCAAAAUCCAACAGAGGAUUGAGCAUCA
B5: chr5:21408736:21408737:-_ENSMUSG00000042453_ENSMUST00000161356|mus_hu|mus_mus_mus_hu_False|48_78 (ssRNA)
RNA: GGGAGUUCUACAGUCCGACGAUCGUUGACAGAGUUGUAGAUGGUGGCUUCAUGGAACUGGAACGGGGAGCAGCCAAUGCUGUUAGAAGAGGAAGGUAGGCACUGGGUCUGUACGAGCUGCCAGGAAUCCGAUCUUGCAUCCUUCAACAGAGGAUUGAGCAUCA
B6: chr2:48026839:48026840:+_ENSG00000116062_ENST00000540021|hu_hu|hu_hu_hu_mus_False|8_58 (ssRNA)
RNA: GGGAGUUCUACAGUCCGACGAUCAUAGUGAGCCACUAGCGUCCUAAAUCUGGAACAGUGGCGGUCAUCCGAAAACUGACCUAUGAAAAACUUGCCCAGUGAAGUGUCCACAAAGCAAACACCAUACGCACGAGUAUGACCAGACAACAGAGGAUUGAGCAUCA
B7: chr8:26933331:26933332:-_ENSMUSG00000031575_ENSMUST00000166078|mus_hu|motif|central (ssRNA)
RNA: GGGAGUUCUACAGUCCGACGAUCCUGGUGGAACUUGGUUCCCUUUUUGCUCCGCCAAGAAUAGCUAAAUUUAUCAUAACCGGAAGGAGCUUGAAGGUUUCCUAGGGGCUGGGACCAACCCAGUCUGGCAGCGGUAUCUGGUGGCAACAGAGGAUUGAGCAUCA
B8: 77263223_77263343_1906_3pUTR_ENSMUSG00000037926_ENSMUST00000037912|mouse|control|control (ssRNA)
RNA: GGGAGUUCUACAGUCCGACGAUCGUCUGUCUCCAGAUCUUCCACAGCUAAGUCUGGGAACUUGUUGGCAAUGUCUGGGGCCUGUCCAGGUUGGAGUAAGGCUUUAGACGCAUGGCAGUUGUCAAGAGGGAGUUUUGAUUCACUCAACAGAGGAUUGAGCAUCA
B9: chr2:91395433:91395434:+_ENSMUSG00000040549_ENSMUST00000099716|mus_mus|motif|central (ssRNA)
RNA: GGGAGUUCUACAGUCCGACGAUCUGGCUUAAGUGAGAUGAUUUUGGAACCAAAUUCACUUAAGGCUUUCCUCAGUGUUUCGGUACAGGCCACUAUGAUCUUGGGGUUCUUGUUAUCCAGGCCCUUCAGAAGCUCUUCUUGUACCAACAGAGGAUUGAGCAUCA
B10: chr14:89343726:89343727:+_ENSG00000165533_ENST00000346301|hu_hu|motif|central (ssRNA)
RNA: GGGAGUUCUACAGUCCGACGAUCAGACAUAGUGCUUUUUUCCCCUUGCAUAAUGCUGCUUCAUAAGAACAUAUGUGGUCGGAGGAACAAUCAGAGCAUAGCAAAAUGCUGCCUUAAUUGUUUAAUUAAAUGUUGUGUGUCCACCAACAGAGGAUUGAGCAUCA
B11: chr1:130485734:130485735:-_ENSMUSG00000045382_ENSMUST00000052172|mus_mus|mus_mus_mus_hu_False|38_38 (ssRNA)
RNA: GGGAGUUCUACAGUCCGACGAUCGAUGAAGGAGUCGAUGCUGAUCCCAAUGUAGUAAGGCAGCCAACAGGCGAAGAAAGCCAGGAUGAGGAUGACUGUCGUCUUGAGGGCCUUGCGCUUCUGGUGGCCCUUGGAGUGUGACAGCAACAGAGGAUUGAGCAUCA
B12: 141391498_141392571_85_CDS_ENSG00000113552_ENST00000311337|human|control|control (ssRNA)
RNA: GGGAGUUCUACAGUCCGACGAUCGUACUUCUCUGGCCCUGGGUUAAACUGGAUGAUGCGGUUCCUGAUGUAUUUAGCCGCCCACUCGCUCGCCUGAGAAUAGUGCUCCAGGAUGAUGAGCUUCAUCUUGUCACGGACGCCUCCCAACAGAGGAUUGAGCAUCA
B13: chr1:10024197:10024198:-_ENSMUSG00000025917_ENSMUST00000027050|mus_hu|FALSE|FALSE (ssRNA)
RNA: B3 RNA with G80U, G81A
B14: chr7:75932113:75932114:+_ENSG00000106211_ENST00000248553|hu_hu|hu_hu_hu_mus_False|18_28 (ssRNA)
RNA: GGGAGUUCUACAGUCCGACGAUCCUGCGACCACUCAUCGGGCAACCGGGGCACCCCGAAAGCUUGAUCGAAGAGGCGGCUGUGUGCAGGGUACCAGUCCCGGAAUGCCCAGCUGGGGCCCCGCAGGAGCAGCGAGAAGGGCACCAACAGAGGAUUGAGCAUCA

For the assay, the target named is T1, UNK ZnF1-3. The experiment in a line: nsRBNS (natural sequence RNA bind-n-seq); RBNS binding buffer (assumed for nsRBNS): 25 mM Tris pH 7.5, 150 mM KCl, 3 mM MgCl2, 0.01% Triton X-100, 500 ug/ml BSA, 20 U/ml SUPERase-In, 4 C; UNK is unkempt and MSI1 is Musashi-1; names of the RNAs are library labels; protein concentration not given here; high values mean tight binding.
Consider B1, for which the binding signal was determined as 1.93 enrichment R.
B2 had a binding signal of 0.976 enrichment R.
The result for B3 reads 1.35 enrichment R; that for B4, 0.706 enrichment R; that for B5, 1.46 enrichment R.
Consider B6, for which the binding signal is 1.14 enrichment R.
The figure for B7 is 1.05 enrichment R; for B8 it is 0.793 enrichment R.
The figure for B9 is 0.527 enrichment R.
The figure for B10 is 1.3 enrichment R; for B11 it is 0.963 enrichment R; for B12 it is 0.903 enrichment R.
Turning to B13, the binding signal was 1.32 enrichment R.
The result for B14 reads 1.11 enrichment R.
